The source of these data is article PMC12820563, “FoxP3 forms a head-to-head dimer in vivo and stabilizes its multimerization on adjacent microsatellites”.

This is one part of the list.

This test deals with T1, MBP-FoxP1dN (Mus musculus, UniProt P58462 326-579).
T1 sequence: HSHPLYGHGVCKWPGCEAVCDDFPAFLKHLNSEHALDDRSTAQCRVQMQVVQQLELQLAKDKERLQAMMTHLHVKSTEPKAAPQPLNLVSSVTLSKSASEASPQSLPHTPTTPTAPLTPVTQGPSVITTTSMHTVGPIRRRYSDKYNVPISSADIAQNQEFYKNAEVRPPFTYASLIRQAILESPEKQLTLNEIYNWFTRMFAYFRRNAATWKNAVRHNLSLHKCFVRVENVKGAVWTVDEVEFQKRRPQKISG
As to the kind of experiment: PD-seq (MBP pull-down with sequencing); 20 mM Tris-HCl pH 7.5, 100 mM NaCl, 1.5 mM MgCl2, 0.4 uM protein, 0.1 uM dsDNA library, 30 min, room temperature, amylose pull-down; high values mean tight binding. Conditions: protein: recombinant; tags: His6-MBP; chain copies: 2; dsDNA, one strand shown. In outline:
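Binding is reads-per-million enrichment of pull-down over input, with replicates pooled. It comes from 30 min room-temperature incubation in Tris pH 7.5 buffer with NaCl and MgCl2 of 0.4 µM His6-MBP-tagged, N-terminally truncated mouse FoxP3 or FoxP1 fragment from E. coli with 0.1 µM Klenow-filled degenerate double-stranded DNA library, followed by amylose resin capture, three washes and Illumina sequencing of the released DNA.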
For the sequence “GATGATTGTTCTCCCAGCTGATGAATTGTTGTAATCGAGTAAACAAATTTTCCTAATCTTTCTGTTCAAGCGCCATCTAC”, the binding signal is 1.96 RPM ratio (pull-down/input).

“GATGATTGTTCTCCCAGCTGATGAATTAAACAGTTCGAGTAAACAAATTTTCCTAATCTTTCTGTTCAAGCGCCATCTAC”: the binding signal is 1.24 RPM ratio (pull-down/input).

In the case of “GATGATTGTTCTCCCAGCTGATGAATTGTCAGAGTCGAGTAAACAAATTTTCCTAATCTTTCTGTTCAAGCGCCATCTAC”, the binding signal is 0.866 RPM ratio (pull-down/input).

On to “GATGATTGTTCTCCCAGCTGATGAATTATCTCTATCGAGTAAACAAATTTTCCTAATCTTTCTGTTCAAGCGCCATCTAC”, for which the binding signal is 1.04 RPM ratio (pull-down/input).

With “GATGATTGTTCTCCCAGCTGATGAATTAGCAGGATCGAGTAAACAAATTTTCCTAATCTTTCTGTTCAAGCGCCATCTAC”, the binding signal was 0.814 RPM ratio (pull-down/input).

As to “GATGATTGTTCTCCCAGCTGATGAATTGATATTTTCGAGTAAACAAATTTTCCTAATCTTTCTGTTCAAGCGCCATCTAC”, the binding signal is 2.4 RPM ratio (pull-down/input).

Take “GATGATTGTTCTCCCAGCTGATGAATTCTGTTGCTCGAGTAAACAAATTTTCCTAATCTTTCTGTTCAAGCGCCATCTAC”: the binding signal is 1.25 RPM ratio (pull-down/input).

Take “GATGATTGTTCTCCCAGCTGATGAATTGCGCTTGTCGAGTAAACAAATTTTCCTAATCTTTCTGTTCAAGCGCCATCTAC”: the binding signal was 1.18 RPM ratio (pull-down/input).

As to “GATGATTGTTCTCCCAGCTGATGAATTCCGGTTGTCGAGTAAACAAATTTTCCTAATCTTTCTGTTCAAGCGCCATCTAC”, the binding signal is 1.05 RPM ratio (pull-down/input).

With “GATGATTGTTCTCCCAGCTGATGAATTGGACCTCTCGAGTAAACAAATTTTCCTAATCTTTCTGTTCAAGCGCCATCTAC”, the binding signal was 0.763 RPM ratio (pull-down/input).

In the case of “GATGATTGTTCTCCCAGCTGATGAATTAAAACGGTCGAGTAAACAAATTTTCCTAATCTTTCTGTTCAAGCGCCATCTAC”, the binding signal is 0.869 RPM ratio (pull-down/input).

Take “GATGATTGTTCTCCCAGCTGATGAATTTCCGGAATCGAGTAAACAAATTTTCCTAATCTTTCTGTTCAAGCGCCATCTAC”: the binding signal was 0.872 RPM ratio (pull-down/input).

For “GATGATTGTTCTCCCAGCTGATGAATTAATCTGTTCGAGTAAACAAATTTTCCTAATCTTTCTGTTCAAGCGCCATCTAC”, the binding signal is 0.867 RPM ratio (pull-down/input).

With “GATGATTGTTCTCCCAGCTGATGAATTGTCTGATTCGAGTAAACAAATTTTCCTAATCTTTCTGTTCAAGCGCCATCTAC”, the binding signal was 1 RPM ratio (pull-down/input).

As for “GATGATTGTTCTCCCAGCTGATGAATTGTGTATATCGAGTAAACAAATTTTCCTAATCTTTCTGTTCAAGCGCCATCTAC”, the binding signal is 1.9 RPM ratio (pull-down/input).

As to “GATGATTGTTCTCCCAGCTGATGAATTCTCCAGGTCGAGTAAACAAATTTTCCTAATCTTTCTGTTCAAGCGCCATCTAC”, the binding signal was 0.76 RPM ratio (pull-down/input).

For “GATGATTGTTCTCCCAGCTGATGAATTCTTGGAGTCGAGTAAACAAATTTTCCTAATCTTTCTGTTCAAGCGCCATCTAC”, the binding signal is 0.857 RPM ratio (pull-down/input).

In the case of “GATGATTGTTCTCCCAGCTGATGAATTTTTACCCTCGAGTAAACAAATTTTCCTAATCTTTCTGTTCAAGCGCCATCTAC”, the binding signal is 0.917 RPM ratio (pull-down/input).

Consider “GATGATTGTTCTCCCAGCTGATGAATTTACGGATTCGAGTAAACAAATTTTCCTAATCTTTCTGTTCAAGCGCCATCTAC”, for which the binding signal was 1.24 RPM ratio (pull-down/input).

Regarding “GATGATTGTTCTCCCAGCTGATGAATTCATTTGATCGAGTAAACAAATTTTCCTAATCTTTCTGTTCAAGCGCCATCTAC”, the binding signal is 0.905 RPM ratio (pull-down/input).

As for “GATGATTGTTCTCCCAGCTGATGAATTTTGAAAATCGAGTAAACAAATTTTCCTAATCTTTCTGTTCAAGCGCCATCTAC”, the binding signal was 1.14 RPM ratio (pull-down/input).

For the sequence “GATGATTGTTCTCCCAGCTGATGAATTTTAAACGTCGAGTAAACAAATTTTCCTAATCTTTCTGTTCAAGCGCCATCTAC”, the binding signal is 0.934 RPM ratio (pull-down/input).

“GATGATTGTTCTCCCAGCTGATGAATTGCCTAGCTCGAGTAAACAAATTTTCCTAATCTTTCTGTTCAAGCGCCATCTAC”: the binding signal is 0.861 RPM ratio (pull-down/input).

In the case of “GATGATTGTTCTCCCAGCTGATGAATTTCAACTTTCGAGTAAACAAATTTTCCTAATCTTTCTGTTCAAGCGCCATCTAC”, the binding signal was 0.956 RPM ratio (pull-down/input).

Take “GATGATTGTTCTCCCAGCTGATGAATTTGCTGGGTCGAGTAAACAAATTTTCCTAATCTTTCTGTTCAAGCGCCATCTAC”: the binding signal is 0.859 RPM ratio (pull-down/input).

Take “GATGATTGTTCTCCCAGCTGATGAATTCCTTCGGTCGAGTAAACAAATTTTCCTAATCTTTCTGTTCAAGCGCCATCTAC”: the binding signal is 0.764 RPM ratio (pull-down/input).

For the sequence “GATGATTGTTCTCCCAGCTGATGAATTGCTACCCTCGAGTAAACAAATTTTCCTAATCTTTCTGTTCAAGCGCCATCTAC”, the binding signal was 0.958 RPM ratio (pull-down/input).

As for “GATGATTGTTCTCCCAGCTGATGAATTGCCGATTTCGAGTAAACAAATTTTCCTAATCTTTCTGTTCAAGCGCCATCTAC”, the binding signal is 1.1 RPM ratio (pull-down/input).

For the sequence “GATGATTGTTCTCCCAGCTGATGAATTTCCAACGTCGAGTAAACAAATTTTCCTAATCTTTCTGTTCAAGCGCCATCTAC”, the binding signal was 0.861 RPM ratio (pull-down/input).

As for “GATGATTGTTCTCCCAGCTGATGAATTTACTTTGTCGAGTAAACAAATTTTCCTAATCTTTCTGTTCAAGCGCCATCTAC”, the binding signal is 1.37 RPM ratio (pull-down/input).

For the sequence “GATGATTGTTCTCCCAGCTGATGAATTGGAAACATCGAGTAAACAAATTTTCCTAATCTTTCTGTTCAAGCGCCATCTAC”, the binding signal is 1.23 RPM ratio (pull-down/input).
